In patent publication US20210147571A1, “MONOCLONAL ANTIBODY TARGETING HUMAN TUMOR STEM CELLS AND USE THEREOF” (Suzhou Bojuhua Biomedical Technology Co. Ltd, priority 2017, published 2021):

How the values were obtained:
[1] = system: Bel7402-V13 transplanted tumor; assay: human liver cancer transplanted tumor treated with Hetumomab; format: in vivo, nude mice; conditions: for tumor growth rate: month after drug withdrawal
Description: Bel7402-V13 sphere cells were inoculated subcutaneouly to nude mice at 30,000 cells/mouse. The nude mice were randomly divided into 6 groups (6 per group) as follows: the chemotherapy group (0.3 mg/kg cisplatin, 6 mice); the high dose antibody group (10 mg/kg, 6 mice); the high dose antibody+chemotherapy group (6 mice); the low dose antibody group (2.5 mg/kg, 6 mice); the low dose antibody+chemotherapy group (6 mice); and the PBS group (6 mice). The treatments were started the next day after the cells were inoculated, twice a week, and terminated after 5 weeks. The major and minor diameters of the subcutaneously transplanted tumor were measured twice a week. The tumor volume was calculated with the formula V=(π/6)×(major diameter×minor diameter×minor diameter), and the changes in tumor volume and growth rate of each group were observed. […] Tumor growth rate=(Vt−V0)/number of days, where Vt is the tumor volume at each measurement, and V0 is the tumor volume […] ([…]).

[2] = system: SPCA-1 transplanted tumor; assay: human lung cancer transplanted tumor treated with Hetumomab; format: in vivo, nude mice; conditions: day 28
Description: Specifically, the sphere cells of the human lung cancer cell line SPCA-1 were harvested and inoculated in nude mice at 2.5×10^5 cells/mouse. The mice were divided into following 5 groups, with 5 mice in each group: the PBS control group; the chemotherapy group (cisplatin 0.3 mg/kg); the high dose antibody Hetumomab group (40 mg/kg); the medium dose antibody Hetumomab group (10 mg/kg); and the low dose Hetumomab group (2.5 mg/kg). The antibody treatment was started on the second day after inoculation of lung cancer cells. The experimental groups and the control group were treated by intraperitoneal injection. The treatments were performed for 28 days after inoculation. The chemotherapeutic drug group was treated twice a week. The major and minor diameters of the subcutaneously transplanted tumors were measured twice a week. The tumor volume was calculated with the formula V=(π/6)×(major diameter×minor diameter×minor diameter). The change in tumor volume in each group was observed.

[3] = system: target antigen of Hetumomab in human gastric cancer tissues; assay: immunohistochemistry of gastric tissues; format: binding
Description: By using conventional immunohistochemical techniques, the expression of the target antigen of Hetumomab in many human liver cancer, lung cancer, gastric cancer patients and other related tissues was detected by taking Hetumomab as the primary antibody, and the anti-mouse antibody as the secondary antibody.
By using Hetumomab as the primary antibody, the expression of the target antigen of Hetumomab was detected in human gastric cancer tissues of 110 cases, para-carcinoma tissues of 20 cases, and normal gastric tissues of 3 cases.

[4] = system: CD44+ cells of SNU-5; assay: sphere-forming inhibition (self-renewal); format: cell-based, human; conditions: SNU-5 CD44+
Description: (§1) The main manifestation of the self-renewal ability of tumor stem cells is the ability to form spheres in serum-free medium, which is called asymmetric division, that is, when one cell divides into two daughter cells, one of the daughter cells maintains the same features as the parental cell, while the other daughter cell may continue to divide, forming normal daughter cells. […] And then Hetumomab (250 μg/mL) was used as the experimental group, and the PBS was used as a negative control group to incubate with the cells at 37° C. for 2 h, during which the cells were mixed with the antibody or the negative control once every half an hour. 500 cells in each group were inoculated into a semi-solid sphere medium (containing EGF, LIF, bFGF, etc.) containing 0.8% methylcellulose, and cultured in an ultra-low adhesion 24-well plate. 1-1.5 mL liquid medium was added every other day, and the number of spheres formed from the two groups was observed after 14 days.

[5] = system: SPCA-1 cells; assay: sphere-forming inhibition (self-renewal); format: cell-based, human
Description: as §1

B1: Hetumomab: mouse monoclonal antibody (IgG1, κ) against human tumor stem cells, hybridoma CGMCC NO. 12251; VL SEQ ID NO:1, VH SEQ ID NO:5 (antibody, V domains shown)
VH: QVTLKESGPGILQPSQTLSLTCSFSGFSLSTSGMGVSWIRQPSGKGLEWLAHIYWDDDKRYNPSLKSRLTISKDSSNNQVFLKITSVDTADTATYYCARSFYYYANNSFAYWGQGTLVTVSS
VL: DIVMTQAAFSNPVTLGTSASISCRSSKSLLHSNGITYLYWFLQKPGQSPQLLIYQMSNLASGVPDRFSSSGSGTDFTLRISRVEAEDVGVYYCAQNLELYTFGGGTKLEIK
modifications: Hetumomab heavy chain variable region; Hetumomab light chain variable region
[1]; high dose 10 mg/kg, at drug withdrawal after 5 weeks
  tumor volume inhibition rate: 71.5%
[1]; high dose 10 mg/kg
  tumor growth rate: 0.148 cm^3/day
[1]; high dose 10 mg/kg, one month after drug withdrawal
  tumor volume inhibition rate: 49.1%
[1]; low dose 2.5 mg/kg, at drug withdrawal after 5 weeks
  tumor volume inhibition rate: 54.4%
[1]; low dose 2.5 mg/kg
  tumor growth rate: 0.185 cm^3/day
[1]; low dose 2.5 mg/kg, one month after drug withdrawal
  tumor volume inhibition rate: 34.4%
[2]; High Dose 40 mg/kg i.p.
  Tumor Volume Inhibition Rate (%): 55.97%
[2]; Low Dose 2.5 mg/kg i.p.
  Tumor Volume Inhibition Rate (%): 35.58%
[2]; Medium Dose 10 mg/kg i.p.
  Tumor Volume Inhibition Rate (%): 43.56%
[3]; Gastric Cancer Para-carcinoma Tissue
  Proportion of Positive Cases (%): 0%
[3]; Gastric Cancer Tissue, 110 cases
  Proportion of Positive Cases (%): 93.64%
[3]; Normal Gastric Tissue
  Proportion of Positive Cases (%): 0%
[4]; antibody 10 μg/ml
  Number of formed spheres: 103 ± 3.5
[4]; antibody 20 μg/ml
  Number of formed spheres: 60 ± 4.2
[4]; antibody 40 μg/ml
  Number of formed spheres: 32 ± 1.5
[4]; antibody 80 μg/ml
  Number of formed spheres: 27 ± 2.4
[4]; antibody 144 μg/ml
  Number of formed spheres: 18 ± 2.0
[4]; highest concentration of antibody
  inhibition ratio of sphere-formation: 85.9%
[5]; SPCA-1, antibody 200 μg/ml
  Number of formed spheres: 128.3 ± 7.1
[5]; SPCA-1, antibody 400 μg/ml
  Number of formed spheres: 113.7 ± 3.8
[5]; SPCA-1, antibody 800 μg/ml
  Number of formed spheres: 88.3 ± 7.2
[5]; SPCA-1, highest concentration of antibody
  inhibition ratio of sphere-formation: 41.6%
